From PubChem BioAssay AID1347417 (National Center for Advancing Translational Sciences (NCATS), 2020)
The campaign covered roughly 120,000 compounds. About 5,300 (4.4%) were called active. Inconclusive means that the source gave no clear call. Such entries were picked first, then a sample of the others. Calls come from the whole dose curve; as a rule, active = well fitted inhibition curve with a large enough effect; inconclusive = small, poorly fitted or top-dose-only effect; inactive = no such curve, though single readings can be large or run the other way. Potencies beside an inconclusive call are fits to weak or partial responses and may not hold up.
Potency is the fitted concentration of half-maximal effect; tags give direction and shape of the fitted curve.

Assay: qHTS Primary assay for Inhibitors of Plasmodium falciparum Dd2 growth in vitro; note: nearly all actives have a fitted effect of over 65% in size;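 for activity, negative = inhibition: plate controls were DMSO vehicle for no effect and reference drug for full effect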
Details: P. falciparum Dd2 growth, SYBR Green, 72 h; activity, negative = inhibition: at 28.9 µM (top of the series) unless noted; series mostly up to 28.9 µM
In short: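 Readout: SYBR Green fluorescence, 485 nm excitation, 535 nm emission, after ~16 h lysis at 37C. Before that, Dd2-infected red cells (2.5% hematocrit) grew 72 h with compound, 29 uM top final concentration.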
For `CCc1nc2c(c(-c3ccc(Cl)cc3)n1)CN(Cc1ccsc1)CC2`, the Potency was active: 5.01 µM.
For `CCc1ccc(N2CC(c3noc(-c4ccc(OC)nc4)n3)CC2=O)cc1` (configuration not stated), the Potency was “inactive”.
With `COc1ccc(CNC(=O)CN2C(=O)COc3ccc(S(=O)(=O)Nc4ccccc4)cc32)cc1` the Potency was inconclusive: 20 µM [inhibitor, single point].
For `O=C(Nc1ccc(F)c(F)c1)c1cc(S(=O)(=O)NC2CCCCCC2)ccc1F`, the Potency was inconclusive: 10 µM [inhibitor, single point].
For `O=C(c1ccccc1)n1nc(-c2ccccc2)nc1NCc1ccc(F)cc1`, the Potency was “inactive”.
With `COc1ccc(-n2nc(C(=O)N3CCCC(C)C3)c3c4ccccc4n(C)c3c2=O)cc1` (configuration not stated) the Potency was inconclusive: 10 µM [inhibitor, single point].
In the case of `COc1cccc(-c2cn3c(n2)N(C(=O)C2CCCC2)CCC3)c1`, the Potency is reported as active: 8.91 µM.
In the case of `O=C(c1cccs1)N1CCC(N2CC(OCC3CC3)C23CCOCC3)CC1` (configuration not stated), the Potency is reported as inconclusive: 11.2 µM [inhibitor, single point].
In the case of `COc1ccc2c(c1)C=C(CN1CCC(CO)(Cc3ccccc3Cl)CC1)CO2`, the Potency is reported as active: 8.91 µM.
For `OC1CCC(NCc2ccc(-c3cnc4c(OCc5ccccc5)nccn34)cc2)CC1` (configuration not stated), the Potency was inconclusive: 31.6 µM [inhibitor, single point].
For `Cn1cc(S(=O)(=O)c2cccc(Cl)c2)c(=O)c2cc(F)c(N3CCN(c4ccc(F)cc4)CC3)cc21`, the Potency was inconclusive: 3.98 µM [inhibitor, partial curve, poor fit].
In the case of `COc1ccccc1N1CCN(C(=O)CN2C(=O)COc3ccc(S(=O)(=O)N4CCCCCC4)cc32)CC1`, the Potency is reported as inconclusive: 10 µM [inhibitor, single point].
With `CC(=O)N1CCN(C(=O)c2cnc(-c3cccnc3)nc2)CC(O)C1` (configuration not stated) the Potency was “inactive”.
With `COc1ccc(C(=O)N2CCCOCCNC(=O)CC2)c(OC)n1` the Potency was “inactive”.
For `O=c1c2oc3ccccc3c2n(Cc2cccc(Cl)c2)c(=O)n1Cc1ccco1`, the Potency was inconclusive: 14.1 µM [inhibitor, single point].
In the case of `COc1ccc(-c2cc(C(F)(F)F)nc(SCCC(=O)Nc3ccccc3F)n2)cc1`, the Potency is reported as “inactive”.
With `COc1ccc(C(=O)N2CCCCCCNC(=O)[C@@H]3CCC[C@@H]32)c(OC)c1` the Potency was “inactive”.
For `CCc1ccccc1NC(c1nnc(-c2cccc(F)c2)o1)c1ccc(F)cc1Cl` (configuration not stated), the Potency was active: 12.6 µM.
For `Cc1nn2c(c1-c1ccccc1OCc1ccccc1)N(Cc1ccc(C(=O)O)s1)CCC2`, the Potency was inconclusive: 1.41 µM [inhibitor, partial curve, poor fit].
For `COc1ccc(NC(=O)Cn2cnc3sc(C)c(S(=O)(=O)N4CCN(c5ccccc5OC)CC4)c3c2=O)cc1OC`, the Potency was inconclusive: 10 µM [inhibitor, single point].
With `O=C(NC1CCCC1)c1ccc(OC2CCN(C(=O)C3CCCO3)CC2)c(Cl)c1` (configuration not stated) the Potency was inconclusive: 8.91 µM [inhibitor, single point].
With `CCCN(CCC)C(=O)CC1=CSC2=NC(CC)=C(C(=O)OC)C(c3cccc(F)c3)N12` (configuration not stated) the Potency was active: 2.24 µM.
For `CC(C)n1cc(CN2C[C@@H]3C(=O)N(Cc4ccc5c(c4)OCO5)C(=O)[C@@H]3C2)c2ccccc21`, the Potency was inconclusive: 11.2 µM [inhibitor, partial curve].
With `CCN1CCN(Cc2nc3cc(NC(=O)c4cc(OC)c(OC)c(OC)c4)ccc3n2CC)CC1` the Potency was inconclusive: 10 µM [inhibitor, partial curve].
For `Cc1ccc(CNC(=O)N2CCC(CN3CCC(C)CC3)CC2)cc1`, the Potency was inconclusive: 17.8 µM [inhibitor, single point].
In the case of `O=C(NCc1ccccc1)c1cnc2n1CCN(Cc1ccccc1O)CC2`, the Potency is reported as “inactive”.
For `CCCn1nc(C)c(-c2cc(C(=O)N3CCCC(Cc4nncn4Cc4ccccc4)C3)[nH]n2)c1C` (configuration not stated), the Potency was inconclusive: 17.8 µM [inhibitor, single point].
For `COc1ccc(S(=O)(=O)n2nc(-c3ccco3)nc2NCc2ccc(N(C)C)cc2)cc1`, the activity, negative = inhibition was inactive: 42.8% [at 5.79 µM].
With `C[C@H]1CCCN1C(=O)c1nnc(CNCc2cccc(Cl)c2)n1-c1ccccc1` the Potency was inconclusive: 31.6 µM [inhibitor, single point].
For `Cc1nc(C)c(C(=O)N2CCc3c(c(-c4nncn4Cc4ccccc4)nn3C)C2)s1`, the Potency was inconclusive: 15.8 µM [inhibitor, partial curve, poor fit].
In the case of `COc1ccc(-c2cc(C(=O)NCC(C)C)c3c(C4CCNC4)noc3n2)cc1` (configuration not stated), the Potency is reported as inconclusive: 17.8 µM [inhibitor, single point].
In the case of `Cc1noc(C)c1CC(=O)N1CCC(c2noc(-c3cnccn3)n2)C1` (configuration not stated), the activity, negative = inhibition is reported as inactive: 37.5% [at 5.79 µM].
In the case of `CC1(CNc2ccccc2)COc2ccc(C(=O)NCc3cccc(F)c3)cc2N1` (configuration not stated), the Potency is reported as inconclusive: 1.41 µM [inhibitor, full curve].
With `CCOC(=O)C1=C(C)N=C2SC=C(CC(=O)NC(C)CC)N2C1c1cccc([N+](=O)[O-])c1` (configuration not stated) the Potency was “inactive”.
With `O=C(NCCn1cc(SCc2ccccc2Cl)c2ccccc21)c1cccs1` the Potency was active: 11.2 µM.
In the case of `Cc1cc(C)cc(NC(=O)Cn2cc(S(=O)(=O)NC(C)(C)C)c(S(=O)(=O)NC(C)(C)C)c2)c1`, the Potency is reported as inconclusive: 12.6 µM [inhibitor, single point].
With `O=C(NCCc1ccccc1)c1nnn2c1COC(c1ccc(Br)cc1)C2` (configuration not stated) the Potency was inconclusive: 8.91 µM [inhibitor, single point].
In the case of `O=C1N(Cc2ccccc2)c2ccc(Cl)cc2C1(O)c1c[nH]c2ccccc12` (configuration not stated), the Potency is reported as inconclusive: 10 µM [inhibitor, single point].
In the case of `Cc1cc2nc(-c3ccc(OCc4ccccc4Cl)cc3)cc(C(F)(F)F)n2n1`, the Potency is reported as “inactive”.
With `CCCN1CCCCC12Cc1ccccc1CN(C(=O)C1CCN(C)CC1)C2` (configuration not stated) the Potency was inconclusive: 8.91 µM [inhibitor, partial curve, poor fit].
With `Fc1ccc(Nc2ncnc3onc(-c4cccc(Cl)c4)c23)c(F)c1` the Potency was “inactive”.
With `Cc1ccc(S(=O)(=O)Nc2ccc(C)n(CC(=O)Nc3ccccc3)c2=O)cc1` the Potency was inconclusive: 0.224 µM [inhibitor, partial curve, poor fit].
